Results taken from PubChem BioAssay AID1508624 (National Center for Advancing Translational Sciences (NCATS), 2021).
Out of some 48,000 compounds screened, about 120 (0.25%) were called active. About 4% were inconclusive and are not listed. Calls come from the whole dose curve; as a rule, active = well fitted activation curve with a large enough effect; inconclusive = small, poorly fitted or top-dose-only effect, or another doubt; inactive = no such curve, though single readings can be large or run the other way. The list shows a part of the results.

Assay: Primary qHTS for Identification of Small Molecule Activators of Huntingtin-Antisense Promoter Activity; note: nearly all actives have a fitted effect of over 55% in size
Settings: HEK293 HTT-AS promoter firefly luciferase reporter, 24 h; series mostly up to 57.5 µM; activity change, positive = activation: at the top concentration
In short: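 HEK293 cells carrying firefly luciferase reporters were seeded at 2,500 per well in Opti-MEM and cultured for 24 h. They were then treated with compounds at up to 57.5 uM final for 24 h at 37 degrees C before Dual-Glo luminescence readout.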

Activity change, positive = activation, inactive:
O=C1COc2ccc(-c3cc(-c4ccc(Cl)cc4)c4c(n3)-c3ccccc3OC4)cc2N1 -12.6%
CCCCCNC(=O)c1ccc2c(c1)ncn2-c1cccc(C)c1 -17.6%
Cc1cccc(C(=O)Nc2nnc(S(=O)(=O)N(C)Cc3ccc(Cl)cc3)s2)c1 -31.1%
Cc1ccc(C(=O)NCC(c2ccc3c(c2)OCO3)N2CCN(c3ccc(F)cc3)CC2)cc1 (configuration not stated) -39.8%
CCOc1ccccc1NC(=O)Cn1c(=O)n(Cc2nc(C)no2)c(=O)c2ccccc21 -18.3%
Cc1ccccc1C(=O)Nc1ccccc1OCc1cc(=O)n2ccccc2n1 -4.03%
CCN(CC)c1nc2c(S(=O)(=O)c3ccccc3)nnn2c2ccc(Cl)cc12 -40.3%
CCOc1ccc(CCNC(=O)c2c(C)oc3ncn(CC(C)C)c(=O)c23)cc1 -9.96%
Cc1n[nH]c(C)c1Cc1sc2c(c1C(=O)N1C[C@H](O)CO1)c(=O)n(C)c(=O)n2CC(C)C -15.5%
Cc1cccc(-c2nc(S(=O)(=O)c3ccc(Cl)cc3)c(N3CCCCCC3)o2)c1 -7.97%
Cc1cccc(CS(=O)(=O)Cc2ccc(C(=O)NCc3ccccc3)o2)c1 -20.2%
Clc1ccccc1CNc1ncnc2c1nc1n2CCCC1 -14.8%
Cc1cc(C)cc(NC(=O)c2cc(C)nc3c2c(C)nn3-c2ccccc2)c1 -7.51%
COc1cccc(-c2nc(SCC(=O)NCC3CCCO3)c(-c3ccc(C)cc3)[nH]2)c1 (configuration not stated) -17.5%
COc1ccc(NC(=O)Cn2c(=O)n(CCC(C)C)c(=O)c3cccnc32)cc1Cl -29.6%
Cc1ccc(OCC(=O)N(Cc2ccc(Cl)cc2)Cc2ccco2)cc1C -18.9%
CCOc1ccc(NC(=O)c2cc3c(C)nn(-c4ccccc4)c3s2)cc1 -20%
CC(C)NC(=O)C1CCC(Cn2c(=O)c3sccc3n(CC(=O)N3CCCC3)c2=O)CC1 (configuration not stated) -5%
COc1ccc(NC(=O)c2ccc3c(=O)n4nc(Nc5ccccc5C)sc4nc3c2)cc1Cl -11.2%
Cc1ccccc1Nc1cc(C(=O)NC2CCCC2)c2ccccc2n1 -13.3%
C[C@]1(CO)CN(c2cc(C(=O)Nc3ccc4c(c3)-c3c(c(C(N)=O)nn3-c3ccc(F)cc3)CC4)c(Cl)cn2)C[C@@]1(C)CO -41.8%
Cc1cccc(Cn2cc(/C=C(/C#N)C(=O)Nc3cccc(Cl)c3)c3ccccc32)c1 -20.8%
Cc1ccc(Cn2c(C(=O)O)c(CNC3CCCCC3)c3ccc(C)cc32)cc1 -13.8%
CCN(C(=O)c1cc2c(=O)oc3ccccc3c2s1)c1ccc(C)c(C)c1 0.441%
Cc1c(CNC2CCC(C)CC2)c(C(=O)O)c(C)n1Cc1ccc(Cl)cc1 (configuration not stated) -17.2%
CCOC(=O)C(CC)Sc1ncnc2c1c(-c1ccccc1)cn2-c1ccc(OC)cc1 (configuration not stated) -13.7%
O=C(NCCc1ccc(F)cc1)C(=O)NCC(c1cccs1)S(=O)(=O)c1ccc(Cl)cc1 (configuration not stated) -49.3%
CCS(=O)(=O)N1CC(=O)N(c2ccc(Cl)cc2C)C(C)(C(=O)NC2CCCCC2)C1 (configuration not stated) -3.97%
O=C(CSc1nnc(-c2ccccc2)c(-c2ccccc2)n1)NCCc1ccccc1 -20.4%
Cc1ccc(C)c(N(C)C(=O)c2cc3c(s2)-c2ccccc2OC3)c1 -17.8%
CCn1c(=O)c2cc(C(=O)NCc3ccc(F)cc3Cl)sc2c2ccccc21 -5.38%
Cc1cc(C)c(OCC(=O)N(Cc2ccc(N(C)C)cc2)CC2CCCO2)c(C)c1 (configuration not stated) -27.9%
Cc1cc(=O)n(CC(=O)N2CCCc3ccccc32)c2c1c(C)nn2-c1cccc(F)c1 -16.9%
COC(=O)c1c(NC(=O)COc2ccc(C)cc2Br)sc2c1CCCC2 28.5% [at 11.5 µM, percent change from vehicle, -100% = no light]
Cc1cccc(NC(=O)C2CCCN(S(=O)(=O)c3ccc4c(c3)oc(=O)n4C)C2)c1C (configuration not stated) -11.8%
Cc1ccc(CNC(=O)CN(C)S(=O)(=O)c2ccc3c(c2)c(=O)n(C)c(=O)n3C)cc1 -9.65%
CCOc1ccc(N(C)S(=O)(=O)c2cc(-c3cc(C)no3)ccc2OC)cc1 -43.4%
COc1cccc(N2C(=O)C(CC(=O)Nc3ccccc3)N(CCc3sccc3C)C2=O)c1 (configuration not stated) -14.5%
CCc1ccccc1NC(=O)CN1C(=O)C2CCCN2c2ccc(S(=O)(=O)N(CC)CC)cc21 (configuration not stated) -8.37%
CCCCCCCCCCCCCC(=O)OC(C)C 2.2%
CC(O)(P(=O)(O)O)P(=O)(O)O 1.24%
COc1ccc(-c2c(C)nn3c(-c4ccccc4)cc(C)nc23)cc1OC 1.46%
O=C(Cn1ncc2c3ccccc3n(Cc3cccc(Cl)c3)c2c1=O)NCCCc1ccccc1 -13.1%
Cc1cccc(C)c1NC(=O)Cn1cc(C(=O)c2ccco2)c2ccccc21 -21.9%
Cc1cc(C)n(C(C)CC(=O)Nc2cccc(C#N)c2)n1 (configuration not stated) -12.3%
CCc1nc(Nc2ccc(F)c(Cl)c2)c2c3c(sc2n1)CCCC3 -35.2%
CCOc1ccc(-c2nn(-c3ccc(F)cc3)c3c2cnc2ccc(F)cc23)cc1 -14%
